# Results published in the supplement of paper PMC8728848.
# The list shows a part of the results.
# B1: SAG3 (Toxoplasma gondii), Q9BJ39 (protein)
# chain: MQLWRRRAAGPASLGRQSLPLGCFFAAFGLCVLSAILGTGERGLFVAAGNSRRKITYFGTLTQKAPNWYRCSSTRAKEEVVGHVTLNKEHPDMTIECVDDGLGGEFLPLEGARSSYPRVCHIDAKDQDDCERNRGFLTDYIPGAKQYWYKIEKVEQNGEQSVLYKFTVPWILLPPAKQRYKVGCRYPNHEYCFVEVTVEPTPPMVEGKRVTCGYSESGPVNLEVDLSKNANFIEIRCGEQHHPQPSTYTLQYCSGDSVDPQKCSPQSLTNIFYDYSSSWWKGKLNGPDGATLTIPPGGFPEEDKSFLVGCSLTVDGPPFCNVKVRVAGNPRKWERGGGGHPGSGGLQPGTDGETQAGTGSSAGASSRMASVALAFLLGLLVHVAA
# Tests used:
# Assay in all cases: glycan array binding signal (z-score within array); higher = stronger binding
# Settings in all cases: glycan notation: IUPAC condensed, linker removed
# Fuc(a1-2)[Gal(a1-3)]Gal = molecular target: Fuc(a1-2)[Gal(a1-3)]Gal
# Outline: (§1)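 Glycan array data were curated from 3228 arrays in the Consortium for Functional Glycomics database and kept only where the protein sequence was available. Glycan names were converted to IUPAC-condensed notation, and columns mapping to the same glycan were averaged. The binding signal is a within-array Z-score, averaged across arrays of the same protein sequence at different concentrations or buffers and across linkers. Negative Z-scores can be read as non-binding.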
# [1] = molecular target: Fuc(a1-2)[Gal(a1-3)]Gal(b1-3)GlcNAc
# Outline: as §1
# [2] = molecular target: Fuc(a1-2)[Gal(a1-3)]Gal(b1-3)GlcNAc(b1-2)Man(a1-3)[Fuc(a1-2)[Gal(a1-3)]Gal(b1-3)GlcNAc(b1-2)Man(a1-6)]Man(b1-4)GlcNAc(b1-4)GlcNAc
# Outline: as §1
# [3] = molecular target: Fuc(a1-2)[Gal(a1-3)]Gal(b1-4)Glc
# Outline: as §1
# [4] = molecular target: Fuc(a1-2)[Gal(a1-3)]Gal(b1-4)GlcNAc
# Outline: as §1
# [5] = molecular target: Fuc(a1-2)[Gal(a1-3)]Gal(b1-4)GlcNAc(b1-2)Man(a1-3)[Fuc(a1-2)[Gal(a1-3)]Gal(b1-4)GlcNAc(b1-2)Man(a1-6)]Man(b1-4)GlcNAc(b1-4)GlcNAc
# Outline: as §1
# [6] = molecular target: Fuc(a1-2)[Gal(a1-3)]Gal(b1-4)[Fuc(a1-3)]GlcNAc
# Outline: as §1
# [7] = molecular target: Fuc(a1-2)[Gal(a1-4)]Gal(b1-4)GlcNAc
# Outline: as §1
# [8] = molecular target: Fuc(a1-2)[GalNAc(a1-3)]Gal
# Outline: as §1
# [9] = molecular target: Fuc(a1-2)[GalNAc(a1-3)]Gal(b1-3)GalNAc(a1-3)[Fuc(a1-2)]Gal(b1-4)GlcNAc
# Outline: as §1
# [10] = molecular target: Fuc(a1-2)[GalNAc(a1-3)]Gal(b1-3)GlcNAc
# Outline: as §1
# [11] = molecular target: Fuc(a1-2)[GalNAc(a1-3)]Gal(b1-3)GlcNAc(b1-2)Man(a1-3)[Fuc(a1-2)[GalNAc(a1-3)]Gal(b1-3)GlcNAc(b1-2)Man(a1-6)]Man(b1-4)GlcNAc(b1-4)GlcNAc
# Outline: as §1
# [12] = molecular target: Fuc(a1-2)[GalNAc(a1-3)]Gal(b1-4)Glc
# Outline: as §1
# [13] = molecular target: Fuc(a1-2)[GalNAc(a1-3)]Gal(b1-4)GlcNAc
# Outline: as §1
# [14] = molecular target: Fuc(a1-2)[GalNAc(a1-3)]Gal(b1-4)GlcNAc(b1-2)Man(a1-3)[Fuc(a1-2)[GalNAc(a1-3)]Gal(b1-4)GlcNAc(b1-2)Man(a1-6)]Man(b1-4)GlcNAc(b1-4)GlcNAc
# Outline: as §1
# [15] = molecular target: Fuc(a1-2)[GalNAc(a1-3)]Gal(b1-4)GlcNAc(b1-3)Gal(b1-4)GlcNAc
# Outline: as §1
# [16] = molecular target: Fuc(a1-2)[GalNAc(a1-3)]Gal(b1-4)GlcNAc(b1-3)Gal(b1-4)GlcNAc(b1-3)Gal(b1-4)GlcNAc
# Outline: as §1
# [17] = molecular target: Fuc(a1-2)[GalNAc(a1-3)]Gal(b1-4)[Fuc(a1-3)]GlcNAc
# Outline: as §1
# [18] = molecular target: Fuc(a1-2)[GalNAc(a1-4)]Gal(b1-4)GlcNAc
# Outline: as §1
# [19] = molecular target: Fuc(a1-2)[GalNAc(b1-3)]Gal
# Outline: as §1
# Fuc(a1-3)GlcNAc = molecular target: Fuc(a1-3)GlcNAc
# Outline: as §1
# [20] = molecular target: Fuc(a1-3)[Gal(b1-4)]Glc6S
# Outline: as §1
# [21] = molecular target: Fuc(a1-3)[Gal(b1-4)]GlcNAc
# Outline: as §1
# [22] = molecular target: Fuc(a1-3)[Gal(b1-4)]GlcNAc(b1-2)Man(a1-3)[Fuc(a1-3)[Gal(b1-4)]GlcNAc(b1-2)Man(a1-6)]Man(b1-4)GlcNAc(b1-4)GlcNAc
# Outline: as §1
# [23] = molecular target: Fuc(a1-3)[Gal(b1-4)]GlcNAc(b1-3)Gal(b1-3)[Fuc(a1-4)]GlcNAc
# Outline: as §1
# [24] = molecular target: Fuc(a1-3)[Gal(b1-4)]GlcNAc(b1-3)GalNAc
# Outline: as §1
# [25] = molecular target: Fuc(a1-3)[Gal(b1-4)]GlcNAc(b1-4)Gal(b1-4)[Fuc(a1-3)]GlcNAc
# Outline: as §1
# [26] = molecular target: Fuc(a1-3)[Gal(b1-4)]GlcNAc(b1-4)Gal(b1-4)[Fuc(a1-3)]GlcNAc(b1-4)Gal(b1-4)[Fuc(a1-3)]GlcNAc
# Outline: as §1
# [27] = molecular target: Fuc(a1-3)[Gal(b1-4)]GlcNAc(b1-6)[Gal(b1-3)GlcNAc(b1-3)]Gal(b1-4)Glc
# Outline: as §1
# [28] = molecular target: Fuc(a1-3)[Gal(b1-4)]GlcNAc6S
# Outline: as §1
# [29] = molecular target: Fuc(a1-3)[Gal3S(b1-4)]GlcNAc
# Outline: as §1
# [30] = molecular target: Fuc(a1-3)[Gal3S(b1-4)]GlcNAc6S
# Outline: as §1
# [31] = molecular target: Fuc(a1-3)[GalNAc(b1-4)]GlcNAc
# Outline: as §1
# Fuc(a1-4)GlcNAc = molecular target: Fuc(a1-4)GlcNAc
# Outline: as §1
# Fuc(b1-3)GlcNAc = molecular target: Fuc(b1-3)GlcNAc
# Outline: as §1
# Gal(a1-2)Gal = molecular target: Gal(a1-2)Gal
# Outline: as §1
# Gal(a1-3)Gal = molecular target: Gal(a1-3)Gal
# Outline: as §1
binder,measurement,setting,value
B1,glycan array binding signal (z-score),Fuc(a1-2)[Gal(a1-3)]Gal,-0.263
same,glycan array binding signal (z-score),[1],-0.365
same,glycan array binding signal (z-score),[2],0.257
same,glycan array binding signal (z-score),[3],-0.148
same,glycan array binding signal (z-score),[4],0.112
same,glycan array binding signal (z-score),[5],-0.113
same,glycan array binding signal (z-score),[6],-0.067
same,glycan array binding signal (z-score),[7],-0.081
same,glycan array binding signal (z-score),[8],0.084
same,glycan array binding signal (z-score),[9],-0.108
same,glycan array binding signal (z-score),[10],0.17
same,glycan array binding signal (z-score),[11],-0.473
same,glycan array binding signal (z-score),[12],-0.134
same,glycan array binding signal (z-score),[13],-0.276
same,glycan array binding signal (z-score),[14],-0.306
same,glycan array binding signal (z-score),[15],-0.084
same,glycan array binding signal (z-score),[16],0.11
same,glycan array binding signal (z-score),[17],0.385
same,glycan array binding signal (z-score),[18],-0.046
same,glycan array binding signal (z-score),[19],-0.518
same,glycan array binding signal (z-score),Fuc(a1-3)GlcNAc,-0.204
same,glycan array binding signal (z-score),[20],0.631
same,glycan array binding signal (z-score),[21],0.204
same,glycan array binding signal (z-score),[22],-0.15
same,glycan array binding signal (z-score),[23],-0.032
same,glycan array binding signal (z-score),[24],2.86
same,glycan array binding signal (z-score),[25],-0.174
same,glycan array binding signal (z-score),[26],0.453
same,glycan array binding signal (z-score),[27],0.169
same,glycan array binding signal (z-score),[28],-0.464
same,glycan array binding signal (z-score),[29],-0.111
same,glycan array binding signal (z-score),[30],0.176
same,glycan array binding signal (z-score),[31],-0.554
same,glycan array binding signal (z-score),Fuc(a1-4)GlcNAc,-0.434
same,glycan array binding signal (z-score),Fuc(b1-3)GlcNAc,0.343
same,glycan array binding signal (z-score),Gal(a1-2)Gal,0.002
same,glycan array binding signal (z-score),Gal(a1-3)Gal,-0.317
